Hit rate of the full screen: of about 310,000 compounds, about 14,000 (4.5%) showed an effect of 50% or more. Effects have a minus sign here. The list shows a part of the results. Where a SMILES comes first, the peptide text is derived from it. [ ]: non-standard residue; d: D form. The star is where a group is joined. ξ: configuration not given here. ξN = NC(=O)CC(N)C(=O)O; Boc = CC(C)(C)OC(=O)*
These compounds were tested against human ether-à-go-go-related gene (hERG) potassium channel (human, UniProt Q12809) (assay: primary screen, population patch clamp on CHO cells stably expressing hERG).
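Note: peak tail current of the secondary pulse compared with the same well before compound.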

Sequence of human ether-à-go-go-related gene (hERG) potassium channel (Q12809 whole entry, looked up): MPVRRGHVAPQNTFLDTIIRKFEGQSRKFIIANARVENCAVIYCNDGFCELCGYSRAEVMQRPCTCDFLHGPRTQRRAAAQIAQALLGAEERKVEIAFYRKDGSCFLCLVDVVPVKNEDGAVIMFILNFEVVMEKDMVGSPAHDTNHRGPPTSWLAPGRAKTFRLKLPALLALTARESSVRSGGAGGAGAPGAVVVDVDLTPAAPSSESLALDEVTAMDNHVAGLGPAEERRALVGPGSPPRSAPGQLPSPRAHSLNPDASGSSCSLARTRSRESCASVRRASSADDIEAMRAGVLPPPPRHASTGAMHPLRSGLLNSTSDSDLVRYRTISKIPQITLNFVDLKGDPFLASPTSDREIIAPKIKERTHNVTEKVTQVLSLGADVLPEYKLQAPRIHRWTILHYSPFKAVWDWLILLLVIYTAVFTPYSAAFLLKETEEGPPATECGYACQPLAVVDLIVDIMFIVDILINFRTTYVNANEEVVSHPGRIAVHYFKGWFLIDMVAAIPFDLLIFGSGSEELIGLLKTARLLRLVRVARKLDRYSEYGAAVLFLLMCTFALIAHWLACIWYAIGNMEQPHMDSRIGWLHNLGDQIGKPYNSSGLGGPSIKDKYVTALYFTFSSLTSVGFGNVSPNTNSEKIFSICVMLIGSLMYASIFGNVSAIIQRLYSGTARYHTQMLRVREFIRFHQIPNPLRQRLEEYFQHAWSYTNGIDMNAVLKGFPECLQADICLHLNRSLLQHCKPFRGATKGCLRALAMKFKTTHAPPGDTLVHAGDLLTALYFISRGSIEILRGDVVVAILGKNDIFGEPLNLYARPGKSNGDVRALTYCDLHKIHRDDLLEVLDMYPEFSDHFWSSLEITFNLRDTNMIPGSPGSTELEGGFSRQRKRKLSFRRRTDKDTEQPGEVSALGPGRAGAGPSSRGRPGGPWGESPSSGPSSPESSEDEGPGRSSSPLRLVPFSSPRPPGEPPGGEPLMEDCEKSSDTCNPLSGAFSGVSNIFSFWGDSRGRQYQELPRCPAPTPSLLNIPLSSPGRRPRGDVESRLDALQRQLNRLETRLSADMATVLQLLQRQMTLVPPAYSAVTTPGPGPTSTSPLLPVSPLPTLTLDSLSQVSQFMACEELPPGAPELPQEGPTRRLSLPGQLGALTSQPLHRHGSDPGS

| Structure (SMILES) | hERG current change (%, negative = inhibition) at 10uM |
| --- | --- |
| O=C(NCc1ccccn1)c1ccc(CS(=O)(=O)Cc2ccc(Cl)cc2)o1 | -12.1% |
| O=C(Nc1ccccc1N1CCOCC1)c1ccc(F)c(S(=O)(=O)N2CCOCC2)c1 | -12.6% |
| CCO.N#CC1=C(N)C(C#N)(C#N)C(c2cccnc2)C2CC(c3ccccc3)CC=C12 (stereo not shown) | 8.55% |
| COc1ccc(CC(=O)NNS(=O)(=O)c2ccccc2[N+](=O)[O-])cc1 | 20.3% |
| CCCCc1ccc(NC(=O)CSc2nnc(CNC(=O)c3ccco3)o2)cc1 | -1.33% |
| CNC(=O)c1c(Cl)cnn1-c1ccc(C)cc1 | 21.6% |
| CCC(=O)Nc1ccccc1-c1nc2ccccc2[nH]c1=O | 17.1% |
| OC(CSc1c(Cl)cccc1Cl)CN1CCN(c2ccc(F)cc2)CC1 (stereo not shown) | -40.3% |
| Cc1nc2cc(Cl)c([N+](=O)[O-])cc2s1 | -42.2% |
| Oc1ccccc1-c1nc2ccccc2nc1-c1ccccc1 | -3.36% |
| CN1CCN(C(c2ccc(Cl)cc2)c2cc(Cl)c3cccnc3c2O)CC1 (stereo not shown) | 7.12% |
| CC(=O)NNC(=O)CCn1c2c(c3ccccc31)CCCC2 | 9.01% |
| Cc1cc(C(=O)N2CCOCC2)n(-c2ccccc2)n1 | 3.67% |
| CCOC(=O)C1(CC2CCCCO2)CCN(S(=O)(=O)c2ccccc2)CC1 (stereo not shown) | 9.64% |
| Cc1oc(-c2ccccc2)cc1C(=O)Nc1cccc2ccccc12 | 12.1% |
| Cc1c(NC(=O)C(C)OC(=O)c2cccc(S(=O)(=O)N(C)C)c2)c(=O)n(-c2ccccc2)n1C (stereo not shown) | 22.7% |
| CCOC(=O)CNC(=O)C(CC(N)=O)NC(=O)OC(C)(C)C (stereo not shown) (Boc-[ξN]-Gly-OEt) | 20.3% |
| O=C(CNC1CCCCC1)NN=C(c1ccccc1)c1ccccc1 | -59.8% |
| Cc1ncoc1C(=O)Nc1cccc(Cl)c1C | -7.25% |
| COc1cccc(NC(=O)Nc2cnccn2)c1 | 6.34% |

| Structure (SMILES) | hERG current change (%, negative = inhibition) at 10uM |
| --- | --- |
| Cc1cc(N2CCC(N(C)C3CCCC3)CC2)nc2cc(O)ccc12 | -14.7% |
| COCCN=c1scc(-c2cccs2)n1/N=C/c1ccc(O)c(O)c1O | 6.24% |
| CN1CCN(C(=O)/C(=C\c2cccs2)NC(=O)c2ccco2)CC1 | -67.4% |
| O=C(Nc1ccccc1)N(C1=NCCCCS1)c1cccc2ccccc12 | -5.15% |
| CCN1CCN(Cc2ccc(OC)c(OCc3ccccc3)c2)CC1 | -41.9% |
| O=C(c1ccc(S(=O)(=O)c2cccc(Cl)c2)c([N+](=O)[O-])c1)N1CCN(c2ccccn2)CC1 | -15.8% |
| COc1ccc(OC(C)C(=O)N2CCc3ccccc3C2)cc1 (stereo not shown) | -12.7% |
| CC(C)CCNC(=O)c1cc(-c2ccco2)nc2ccccc12 | 6.45% |
| Cc1ccc(C(=O)OCC(=O)c2ccccc2)cc1 | 14.3% |
| CCCC(c1nnnn1C(C)(C)C)N1CCN(c2ccccc2)CC1 (stereo not shown) | -11.7% |
| COc1ccc2c(c1)C(C)=CC(C)(C)N2C(=O)C(C)N1C(=O)c2ccccc2C1=O (stereo not shown) | -31.6% |
| COCCCNC(=O)C(=O)NC1CCCCC1C (stereo not shown) | 22.8% |
| O=C(O)c1ccc(S(=O)(=O)c2ccc3c(c2)C(=O)N(c2ccccc2[N+](=O)[O-])C3=O)cc1 | 17.6% |
| CCCc1cc(C(=O)Nc2cccc3ccccc23)n(C)n1 | 0.334% |
| O=C(Nc1ccccc1Oc1ccccc1)c1cnccn1 | -1.09% |
| Cc1ccc(Cn2ccc(NC(=O)c3cc(-c4ccc(Cl)cc4)on3)n2)cc1 | 17.3% |
| CCCCCn1nc(C)c(/C=N\NC(=O)c2cc(C)oc2C)c1C | -65.5% |
| CCC(CC)n1[nH]c(=O)cc1N | 7.44% |
| Cc1ccc(S(=O)(=O)NCCC(=O)NCCSc2ccc(Br)cc2)cc1 | -8.17% |
| Cc1ccc(C(=O)Nc2cc(C(F)(F)F)ccc2-n2cncn2)o1 | -9.88% |

| Structure (SMILES) | hERG current change (%, negative = inhibition) at 10uM |
| --- | --- |
| CSc1nnc(-c2ccccc2)n1C | 5.22% |
| COc1cc(C(=O)NC(C)c2cc(C)ccc2C)ccc1OCC(=O)N1CCOCC1 (stereo not shown) | -21.6% |
| O=C(COc1ccc2c3c(c(=O)oc2c1)CCCC3)NCCCN1CCOCC1 | -5.65% |
| COc1ccccc1NC(=O)Cn1c(CCC(=O)O)ccc1-c1ccccc1 | 20.6% |
| CCN(C(=S)NC(=O)Cc1ccc(OC)cc1)c1ccccc1 | 0.155% |
| CC1CCCC(NC(=O)c2cccc(N3CCCC3=O)c2)C1C (stereo not shown) | -13.5% |
| NC1=NC(=O)/C(=C\c2cccs2)S1 | 8.6% |
| COc1ccccc1NC(=O)Cn1cnc2c1c(=O)n(C)c(=O)n2C | 17.9% |
| O=C(/C=C/c1cccc(F)c1)N1CCN(c2ccccn2)CC1 | -118% |
| COc1nc(N(C)S(=O)(=O)c2ccc(C)cc2)nc(C)c1Br | 18.8% |
| O=C(NCCN1CCCCC1)Nc1cccc(F)c1 | -3.3% |
| CCOc1ccc(C(=O)NCC(=O)OCc2ccc(F)cc2Cl)cc1 | -5.03% |
| CCCCn1c(=O)c(CC(C)=O)nc2ccccc21 | 0.233% |
| CN(Cc1ccccc1)C(=O)COC(=O)C1CCN(S(=O)(=O)c2cccs2)CC1 | -53.4% |
| CCCC(c1nnnn1Cc1ccc(F)cc1)N1CCN(CC)CC1 (stereo not shown) | -53% |
| Cc1ccccc1Nc1nc(-c2sc(NC(=O)c3ccc([N+](=O)[O-])cc3)nc2C)cs1 | 24.4% |
| CCCCOC(=O)Nc1cccc(Cl)c1C | -15.6% |
| O=C(Nc1cccc(F)c1)NC1CCN(Cc2ccccc2)CC1 | -56.4% |

Source: article PMC4336329 (PLoS ONE, 2015)
